Laboratory results as given in paper PMC6751209.
Substitutions are numbered along the chain they refer to. Names may count otherwise. Results are given in words; binding and its absence hold for the method and conditions named. Binding seen in cells or lysates may run through a third protein. Some results given as binding are weak or reduced against the parent protein; the word gives no strength. For some assays here: Where a sequence is shown, tags or fusion partners need not be part of it.

By UniProt entry, the sequences of proteins in these tests, tags left out.
UniProt Q12888: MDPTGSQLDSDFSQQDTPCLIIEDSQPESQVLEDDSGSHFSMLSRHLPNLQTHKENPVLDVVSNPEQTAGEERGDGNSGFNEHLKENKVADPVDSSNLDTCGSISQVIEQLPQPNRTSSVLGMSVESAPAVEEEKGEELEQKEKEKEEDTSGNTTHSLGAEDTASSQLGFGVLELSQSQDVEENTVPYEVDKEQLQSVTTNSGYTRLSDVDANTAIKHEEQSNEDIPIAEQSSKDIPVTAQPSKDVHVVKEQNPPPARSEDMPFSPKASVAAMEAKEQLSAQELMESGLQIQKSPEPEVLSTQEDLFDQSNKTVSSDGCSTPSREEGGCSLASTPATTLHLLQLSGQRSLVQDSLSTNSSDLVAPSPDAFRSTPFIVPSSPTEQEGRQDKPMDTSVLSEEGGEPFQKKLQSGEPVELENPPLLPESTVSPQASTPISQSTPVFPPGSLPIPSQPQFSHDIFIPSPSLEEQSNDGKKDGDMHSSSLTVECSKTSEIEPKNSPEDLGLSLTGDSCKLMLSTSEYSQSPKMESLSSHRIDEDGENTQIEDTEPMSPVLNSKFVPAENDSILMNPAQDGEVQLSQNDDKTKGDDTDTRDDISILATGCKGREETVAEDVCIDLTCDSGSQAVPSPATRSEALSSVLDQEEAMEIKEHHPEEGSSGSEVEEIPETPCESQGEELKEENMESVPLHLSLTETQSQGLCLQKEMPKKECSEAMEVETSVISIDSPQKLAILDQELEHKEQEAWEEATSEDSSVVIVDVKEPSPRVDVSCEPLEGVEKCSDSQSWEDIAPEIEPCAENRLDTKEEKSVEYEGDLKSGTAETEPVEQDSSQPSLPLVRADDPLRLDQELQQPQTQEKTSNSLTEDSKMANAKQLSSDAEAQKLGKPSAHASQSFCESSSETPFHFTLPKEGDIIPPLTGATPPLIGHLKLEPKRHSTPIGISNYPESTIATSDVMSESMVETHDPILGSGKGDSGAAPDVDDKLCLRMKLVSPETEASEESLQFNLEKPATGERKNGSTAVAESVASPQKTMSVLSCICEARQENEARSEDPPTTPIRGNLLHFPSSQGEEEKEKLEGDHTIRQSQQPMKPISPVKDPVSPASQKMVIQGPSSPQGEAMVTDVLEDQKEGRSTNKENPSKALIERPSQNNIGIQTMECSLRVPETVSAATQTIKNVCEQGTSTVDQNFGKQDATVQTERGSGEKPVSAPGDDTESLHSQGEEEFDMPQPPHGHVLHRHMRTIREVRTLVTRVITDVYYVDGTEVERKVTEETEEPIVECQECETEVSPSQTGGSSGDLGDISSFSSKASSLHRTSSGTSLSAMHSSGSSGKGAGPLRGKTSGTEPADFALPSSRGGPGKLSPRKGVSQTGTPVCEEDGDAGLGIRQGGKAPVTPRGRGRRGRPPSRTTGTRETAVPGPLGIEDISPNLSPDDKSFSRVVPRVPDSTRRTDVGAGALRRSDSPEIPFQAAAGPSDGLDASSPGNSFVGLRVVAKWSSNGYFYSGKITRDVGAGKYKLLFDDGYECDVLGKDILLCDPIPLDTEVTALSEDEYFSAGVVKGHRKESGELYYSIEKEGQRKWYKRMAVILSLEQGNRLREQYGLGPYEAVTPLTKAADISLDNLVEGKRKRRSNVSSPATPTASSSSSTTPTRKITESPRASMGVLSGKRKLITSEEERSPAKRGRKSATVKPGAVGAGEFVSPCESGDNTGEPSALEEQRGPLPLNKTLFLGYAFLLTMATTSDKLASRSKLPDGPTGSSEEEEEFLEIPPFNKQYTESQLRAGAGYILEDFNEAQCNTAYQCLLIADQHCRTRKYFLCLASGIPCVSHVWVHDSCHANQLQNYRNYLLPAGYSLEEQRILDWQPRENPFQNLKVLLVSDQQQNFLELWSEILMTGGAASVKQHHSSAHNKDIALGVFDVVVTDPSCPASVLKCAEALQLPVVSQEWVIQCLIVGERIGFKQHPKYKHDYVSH

What was measured:
Myc-PP4R3β S840D = target: T1, Myc-PP4R3β S840D (UniProt Q5MIZ7); experiment: co-IP; HeLa transiently transfected with Myc-PP4R3β constructs, asynchronous or prometaphase (nocodazole); whole cell extracts, MYC IP, immunoblot for endogenous PP4C; NETN buffer
T1 sequence: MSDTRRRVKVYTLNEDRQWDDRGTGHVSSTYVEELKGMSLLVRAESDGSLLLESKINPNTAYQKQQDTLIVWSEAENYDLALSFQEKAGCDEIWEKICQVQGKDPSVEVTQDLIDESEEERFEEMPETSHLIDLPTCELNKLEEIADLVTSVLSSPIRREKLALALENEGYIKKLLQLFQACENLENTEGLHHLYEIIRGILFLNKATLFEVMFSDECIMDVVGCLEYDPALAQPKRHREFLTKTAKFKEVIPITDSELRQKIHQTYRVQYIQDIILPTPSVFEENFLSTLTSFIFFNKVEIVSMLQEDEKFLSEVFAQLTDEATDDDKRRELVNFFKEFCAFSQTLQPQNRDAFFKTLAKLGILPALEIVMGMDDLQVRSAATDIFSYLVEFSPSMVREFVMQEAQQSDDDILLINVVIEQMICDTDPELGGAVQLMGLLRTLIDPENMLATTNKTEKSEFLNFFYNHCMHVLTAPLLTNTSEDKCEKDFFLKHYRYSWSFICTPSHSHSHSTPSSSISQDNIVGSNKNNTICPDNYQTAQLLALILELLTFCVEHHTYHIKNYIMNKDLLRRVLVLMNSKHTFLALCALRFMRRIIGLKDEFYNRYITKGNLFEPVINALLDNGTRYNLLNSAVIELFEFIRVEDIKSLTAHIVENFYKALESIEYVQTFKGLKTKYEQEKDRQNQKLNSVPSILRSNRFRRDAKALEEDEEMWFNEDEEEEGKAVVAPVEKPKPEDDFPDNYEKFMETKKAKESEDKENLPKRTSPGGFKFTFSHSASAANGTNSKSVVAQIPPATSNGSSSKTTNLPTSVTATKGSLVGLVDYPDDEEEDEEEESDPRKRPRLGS

Myc-PP4R3β S840F = target: T2, Myc-PP4R3β S840F (UniProt Q5MIZ7); experiment: as above
T2 sequence: T1 sequence with D840F

[1] = target: Myc-PP4R3β, full length, wild type (UniProt Q5MIZ7); experiment: as above
Myc-PP4R3β S840A = target: T3, Myc-PP4R3β S840A (UniProt Q5MIZ7); experiment: as above
T3 sequence: T1 sequence with D840A

[2] = target: CDK5, endogenous (human (endogenous in HeLa)) (UniProt Q00535); experiment: co-IP; Endogenous CDK5 pulled down from asynchronous cells and from cells in late stages of mitosis (Supplementary Fig. 5a); immunoblot for p35/p25, FIBP, KIAA0528
[3] = target: 53BP1 as used in Supplementary Fig. 1a (UniProt Q12888); experiment: co-IP; 53BP1 immunoprecipitated with full-length or deletion mutants of PP4R3β (Supplementary Fig. 1a); cells and bait not stated in the text shown; NETN lysis buffer
FLAG-53BP1 = FLAG-53BP1 (UniProt Q12888); experiment: co-IP; HeLa transiently transfected with FLAG-53BP1 and Myc-PP4R3β constructs, synchronized to prometaphase (M) with nocodazole; whole cell extracts, FLAG IP, immunoblot; NETN buffer
[4] = target: CDK5, endogenous (human (endogenous in HeLa)), Q00535; experiment: co-IP; Endogenous CDK5 pulled down from asynchronous cells and from cells in late stages of mitosis (Supplementary Fig. 5a); immunoblot for p35/p25, FIBP, KIAA0528; conditions: remark: other sources report otherwise

B1: PP4 catalytic subunit (PP4C), endogenous (enzyme, UniProt P60510 1-307)
chain: MAEISDLDRQIEQLRRCELIKESEVKALCAKAREILVEESNVQRVDSPVTVCGDIHGQFYDLKELFRVGGDVPETNYLFMGDFVDRGFYSVETFLLLLALKVRYPDRITLIRGNHESRQITQVYGFYDECLRKYGSVTVWRYCTEIFDYLSLSAIIDGKIFCVHGGLSPSIQTLDQIRTIDRKQEVPHDGPMCDLLWSDPEDTTGWGVSPRGAGYLFGSDVVAQFNAANDIDMICRAHQLVMEGYKWHFNETVLTVWSAPNYCYRCGNVAAILELDEHLQKDFIIFEAAPQETRGIPSKKPVADYFL
Which binding (Myc-PP4R3β S840D) does the source give for B1 here?
The binding was “binds”.

What about the binding (Myc-PP4R3β S840F) of the same binder?
The binding was “binds”.

And the binding [1]?
Its binding is “binds”.

And the binding (Myc-PP4R3β S840A)?
Its binding is “binds”.

B2: KIAA0528 (C2 calcium-dependent domain containing 5), endogenous (protein, UniProt Q86YS7 1-1000)
chain: MPGKLKVKIVAGRHLPVMDRASDLTDAFVEVKFGNTTFKTDVYLKSLNPQWNSEWFKFEVDDEDLQDEPLQITVLDHDTYSANDAIGKVYIDIDPLLYSEAATVISGWFPIYDTIHGIRGEINVVVKVDLFNDLNRFRQSSCGVKFFCTTSIPKCYRAVIIHGFVEELVVNEDPEYQWIDRIRTPRASNEARQRLISLMSGELQRKIGLKVLEMRGNAVVGYLQCFDLEGESGLVVRAIGTACTLDKLSSPAAFLPACNSPSKEMKEIPFNEDPNPNTHSSGPSTPLKNQTYSFSPSKSYSRQSSSSDTDLSLTPKTGMGSGSAGKEGGPFKALLRQQTQSALEQREFPFFTLTAFPPGFLVHVGGVVSARSVKLLDRIHNPDEPETRDAWWAEIRQEIKSHAKALGCHAVVGYSESTSICEEVCILSASGTAAVLNPRFLQDGTVEGCLEQRLEENLPTRCGFCHIPYDELNMPFPAHLTYCYNCRKQKVPDVLFTTIDLPTDATVIGKGCLIQARLCRLKKKAQAEANATAISNLLPFMEYEVHTQLMNKLKLKGMNALFGLRIQITVGENMLMGLASATGVYLAALPTPGGIQIAGKTPNDGSYEQHISHMQKKINDTIAKNKELYEINPPEISEEIIGSPIPEPRQRSRLLRSQSESSDEVTELDLSHGKKDAFVLEIDDTDAMEDVHSLLTDVPPPSGFYSCNTEIMPGINNWTSEIQMFTSVRVIRLSSLNLTNQALNKNFNDLCENLLKSLYFKLRSMIPCCLCHVNFTVSLPEDELIQVTVTAVAITFDKNQALQTTKTPVEKSLQRASTDNEELLQFPLELCSDSLPSHPFPPAKAMTVEKASPVGDGNFRNRSAPPCANSTVGVVKMTPLSFIPGAKITKYLGIINMFFIRETTSLREEGGVSGFLHAFIAEVFAMVRAHVAALGGNAVVSYIMKQCVFMENPNKNQAQCLINVSGDAVVFVRESDLEVVSSQQPTTNCQSSCTEGEVTT
B2 was tested. Which binding [2] did it give?
Its binding is “binds”.

B3: Myc-PP4R3β C-terminal region, residues 721–849 (domain or fragment, UniProt Q5MIZ7 721-849)
chain: EEEEGKAVVAPVEKPKPEDDFPDNYEKFMETKKAKESEDKENLPKRTSPGGFKFTFSHSASAANGTNSKSVVAQIPPATSNGSSSKTTNLPTSVTATKGSLVGLVDYPDDEEEDEEEESSPRKRPRLGS
B3 was tested. Which binding [3] did it give?
The binding was “binds”.

B4: Myc-PP4R3β S840D (protein, UniProt Q5MIZ7 1-849)
chain: T1 sequence
For B4, which binding (FLAG-53BP1) is on record?
The binding was “binds”.

B5: Fibroblast growth factor (acidic) intracellular binding protein (FIBP), endogenous, O43427 1-364 (protein)
chain: MTSELDIFVGNTTLIDEDVYRLWLDGYSVTDAVALRVRSGILEQTGATAAVLQSDTMDHYRTFHMLERLLHAPPKLLHQLIFQIPPSRQALLIERYYAFDEAFVREVLGKKLSKGTKKDLDDISTKTGITLKSCRRQFDNFKRVFKVVEEMRGSLVDNIQQHFLLSDRLARDYAAIVFFANNRFETGKKKLQYLSFGDFAFCAELMIQNWTLGAVGEAPTDPDSQMDDMDMDLDKEFLQDLKELKVLVADKDLLDLHKSLVCTALRGKLGVFSEMEANFKNLSRGLVNVAAKLTHNKDVRDLFVDLVEKFVEPCRSDHWPLSDVRFFLNQYSASVHSLDGFRHQALWDRYMGTLRGCLLRLYHD
For B5, which binding [4] is on record?
Its binding is “no binding”.
